# Test results published in PubChem BioAssay AID1458 (National Center for Advancing Translational Sciences (NCATS), 2008).
# The campaign covered roughly 210,000 compounds. About 5,900 (2.8%) were called active. Inconclusive means that the source gave no clear call. Such entries were picked first, then a sample of the others. The call rests on the fitted dose curve; in most records, active means well fitted activation curve with a large enough effect; inconclusive means small, poorly fitted or top-dose-only effect; inactive means no such curve, though single readings can be large or run the other way. Potencies beside an inconclusive call are fits to weak or partial responses and may not hold up.
# Experiment: qHTS Assay for Enhancers of SMN2 Splice Variant Expression; further: nearly all actives have a fitted effect of over 55% in size; on activity change, positive = activation: % of control where 0% means no effect
# Conditions: HEK293 SMN2-luciferase splicing reporter, luminescence, 30-36 h; activity change, positive = activation: at 46.1 µM (top of the series)
# Summary of the method: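 qHTS luciferase splicing reporter: luminescence rises when SMN2 exon 7 is included in transfected HEK293 cells. Compound exposure lasted 30-36 h at 37C, with 4.5 mM final sodium butyrate as control, followed by a ONE-Glo read.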
# Potency means the concentration at half of the fitted maximal effect; tags describe the fitted curve by direction and shape.
Structure (SMILES),Potency,"activity change, positive = activation"
COc1ccc2c(c1)sc1ncc(C(=O)NCc3ccc(Cl)cc3)c(=O)n12,"inconclusive: 35.5 µM [activator, single point]",
Fc1ccc(-n2[nH]nnc2=S)cc1N1CCCC1,,inactive: 0.725%
CCCCCc1ccc(-c2ccc(/C=C/C(N)=O)cc2)nc1,,inactive: -1.44%
O=C1NC(c2ccccc2)=N/C1=C/c1ccco1,active: 12.6 µM,
C/C(=N\Nc1ccc(Cl)cc1)c1ccccn1,active: 14.1 µM,
CCOC(=O)COc1ccc2c(c1)c(C(=O)OCC)c(C)n2CC,"inconclusive: 3.55 µM [activator, full curve, poor fit]",
Cc1cc(C)n(-c2ccc(C(=O)Nc3nc4ccccc4s3)cc2)n1,,inactive: 17.3%
O=C(Nc1ccccc1)c1ccc(-c2ccc(Br)cc2)o1,"inconclusive: 6.31 µM [activator, single point]",
Cc1cccc(NC(=S)NCCC(C)C)c1,"inconclusive: 1.12 µM [activator, partial curve, poor fit]",
CCn1c(=O)cc(OCC(=O)NCCC(C)C)c2ccccc21,"inconclusive: 14.1 µM [activator, single point]",
O=C(c1ccccc1)c1cnc(-c2ccc(Cl)cc2)s1,"inconclusive: 3.98 µM [activator, single point]",
Cc1cc(C)n(-c2nnc(C)n2/N=C/c2ccccc2O)n1,"inconclusive: 4.47 µM [activator, full curve, poor fit]",
Fc1cc(F)c2nc(N3CCOCC3)sc2c1,"inconclusive: 25.1 µM [activator, single point]",
O=C(C1CCN(S(=O)(=O)c2ccc(Br)s2)CC1)N1CCN(c2cccc(Cl)c2)CC1,,inactive: -1.19%
O=C(Nc1cccc(-c2cnc3ccccc3n2)c1)c1cccc(NC(=O)c2ccco2)c1,"inconclusive: 12.6 µM [activator, single point]",
O=C(Nc1ccc(S(=O)(=O)N2CCCCCC2)cc1)c1ccco1,"inconclusive: 14.1 µM [activator, single point]",
CC(=O)N(O)[C@@H]1c2cc(C#N)ccc2OC(C)(C)[C@H]1O,,inactive: -5.49%
CCOc1ccc(C(=O)N/N=C/c2ccccc2[N+](=O)[O-])cc1,active: 12.6 µM,
COc1cc(S(=O)(=O)NCCN2CCOCC2)c(OC)cc1Cl,"inconclusive: 0.794 µM [activator, full curve]",
COc1ccc(NC(=O)c2cnc3sccn3c2=O)cc1,active: 14.1 µM,
COc1cc(C(=O)Nc2ccc(NC(=O)C(C)C)nc2)cc(OC)c1OC,"inconclusive: 17.8 µM [activator, partial curve, poor fit]",
O=C(NCc1ccccc1)C(c1ccncc1)N(C(=O)c1csnn1)C1CC1 (centres undefined),,inactive: -6.72%
N#Cc1nc(-c2ccccc2Cl)oc1N1CCCCC1,,inconclusive: 42.1% [activator]
NC(=O)C1CCN(C(=S)c2ccc(-c3ccc(Br)cc3)o2)CC1,active: 8.91 µM,
CC(C)CNC(=S)N1CCN(C(c2ccccc2)c2ccccc2)CC1,"inconclusive: 1.58 µM [activator, partial curve, poor fit]",

Structure (SMILES),Potency,"activity change, positive = activation"
Cc1cccc2sc(NNC(=O)c3ccc4c(c3)OCCO4)nc12,,inactive: -0.261%
C/C(=N\NC(=O)CSCc1ccccc1Cl)c1cccc(NC(=O)c2ccccc2)c1,,inactive: -65.3%
O=c1[nH]n(CC2COC3(CCCCC3)O2)c(=O)c2ccccc12 (centres undefined),"inconclusive: 7.94 µM [activator, partial curve, poor fit]",
COc1ccc(Nc2cc(C(=O)NCCc3ccc(C)cc3)c3ccccc3n2)c(OC)c1,,inactive: -6.22%
O=C(N/N=C/c1ccc(-c2cccc([N+](=O)[O-])c2)o1)c1ccc([N+](=O)[O-])cc1,,inactive: -2.1%
COC(=O)c1ccc(COc2ccccc2[N+](=O)[O-])o1,"inconclusive: 10 µM [activator, partial curve]",
Cc1cc(=O)oc2c(OS(C)(=O)=O)c(OS(C)(=O)=O)ccc12,,inactive: -6.68% [at 9.22 µM]
COc1ccc(OC)c(CCNC(=O)c2ccc3c(c2)N(Cc2ccc(C)cc2)CCS3)c1,,inactive: -5.86%
CCOC(=O)c1c(Nc2ccccc2N)cc(C)nc1C,"inconclusive: 0.005 µM [activator, full curve, poor fit]",
Nc1nc2ccc(Oc3ccccc3)cc2s1,"inconclusive: 28.2 µM [activator, single point]",
CCCC1C(=O)N(c2ccccc2)C1c1ccccc1 (centres undefined),"inconclusive: 5.62 µM [activator, single point]",
CCC1S/C(=N/C(=O)NC2CCCCC2)NC1=O (centres undefined),active: 11.2 µM,
O=C(NCCc1c[nH]c2ccccc12)C(=O)Nc1ccccc1,"inconclusive: 17.8 µM [activator, single point]",
Nn1c(SCC(=O)NCCC2=CCCCC2)nnc1C1CCCCC1,"inconclusive: 0.0708 µM [activator, full curve]",
Cc1nc2nc(-c3ccccc3)[nH]n2c(=O)c1Cc1ccccc1,active: 12.6 µM,
C/C(=N\OC(=O)c1cccc(C)c1)c1sc(-c2ccccc2)nc1C,"inconclusive: 35.5 µM [activator, single point]",
COc1cccc(NC(=O)c2cccnc2)c1,"inconclusive: 0.158 µM [activator, full curve]",
C/C(=N\NC(=O)c1ccc(CN2CCOCC2)cc1)c1ccc(NC(=O)c2ccccc2)cc1,active: 11.2 µM,
CC(=O)Nc1ccc(C2Sc3ccccc3NC3=C2C(=O)c2ccccc23)cc1 (centres undefined),"inconclusive: 11.2 µM [activator, partial curve]",
O=C(c1cccs1)N1CCc2c([nH]c3ccccc23)C1c1ccc(Cl)cc1 (centres undefined),"inconclusive: 35.5 µM [activator, single point]",
Cc1csc(C(C#N)C(=O)c2cc3ccccc3o2)n1 (centres undefined),active: 11.2 µM,
COc1ccc2[nH]c(=O)c(CN(CCO)C(=O)c3cccs3)cc2c1,"inconclusive: 4.47 µM [activator, partial curve, poor fit]",
c1cncc(CSc2ccc(-c3ccc4c(c3)OCO4)nn2)c1,,inactive: 1.4%
O=C(COC(=O)C1COc2ccccc2O1)Nc1cccc(S(=O)(=O)N2CCCCC2)c1 (centres undefined),,inactive: 4.77%
CC(=O)Nc1ccc2oc(-c3ccccc3Br)nc2c1,active: 11.2 µM,

Structure (SMILES),Potency,"activity change, positive = activation"
COc1ccc(OC)c(/C=N/N(C)c2ccccc2)c1,"inconclusive: 17.8 µM [activator, single point]",
CCOc1ccccc1NC(=O)COn1nnc2ccccc21,"inconclusive: 2.82 µM [activator, full curve, poor fit]",
Cc1ccc(C(=O)N/N=C/C2=Cc3ccccc3OC2C)cc1 (centres undefined),"inconclusive: 22.4 µM [activator, partial curve, poor fit]",
Cc1ccc(Cl)cc1N1CCN(C(=O)COc2ccc(S(=O)(=O)NC(C)C)cc2)CC1,,inactive: -63.5%
COc1ccc(C(c2nnnn2Cc2cccs2)N2CCN(c3ccc(F)cc3)CC2)cc1OC (centres undefined),"inconclusive: 0.158 µM [activator, full curve, poor fit]",
Cc1ccc(C)c(-n2c(CCC(=O)O)ccc2-c2ccc(Cl)cc2)c1,"inconclusive: 0.0045 µM [activator, full curve, poor fit]",
CCCCc1ccc(N=N/C(C(=O)Nc2cc(OC)c(NC(C)=O)cc2OC)=C(/C)O)cc1,,inactive: -8.51%
Cc1ccc(C(=O)Nc2sc3c(c2C#N)CCCCC3)cc1C,"inconclusive: 1 µM [activator, partial curve]",
COC(C)(C)[C@]12CC(O)(C(C)C)ON1[C@H]1CCCCC1N2O (some centres undefined),"inconclusive: 22.4 µM [activator, partial curve]",
Cn1c(=O)c2c(-c3ccccc3Cl)n(-c3cc(Cl)ccc3O)cc2n(C)c1=O,"inconclusive: 0.316 µM [activator, partial curve]",
CN(C)S(=O)(=O)c1ccc(C(=O)Oc2ccccc2)cc1,"inconclusive: 0.004 µM [activator, full curve, poor fit]",
Cc1csc(NC(=O)CSc2ccccc2F)n1,"inconclusive: 35.5 µM [activator, single point]",
Cc1ccc(C(=O)Nc2nnc(-c3cccs3)s2)cc1C,"inconclusive: 17.8 µM [activator, partial curve, poor fit]",
O=C(CCCN1C(=O)/C(=C\c2cccs2)SC1=S)NNC(=O)c1cccnc1,"inconclusive: 5.62 µM [activator, single point]",
COc1ccccc1C(=O)NCCn1cc(SCC(=O)Nc2cc(C)on2)c2ccccc21,,inactive: -37.6%
CC1Oc2ccccc2N(CC(=O)NCc2cccs2)C1=O (centres undefined),"inconclusive: 5.62 µM [activator, single point]",
CN(C)CCSCCO,,inactive: -7.82% [at 9.22 µM]
Cc1ccc(C)c(CN2C(=O)CSc3ccc(C(=O)NCc4ccc(F)cc4)cc32)c1,,inactive: -4.51%
CC(=O)N1CCc2cc(N=NC3=C(O)CC(C)(C)CC3=O)ccc21,"inconclusive: 28.2 µM [activator, single point]",
Cc1ccc(C(=O)COC(=O)c2cc(=O)[nH]c3ccccc23)cc1,"inconclusive: 35.5 µM [activator, single point]",
CCn1nc(C)c(/C=N/NC(=O)c2ccoc2C)c1C,"inconclusive: 20 µM [activator, single point]",
CNc1cc([N+](=O)[O-])ccc1N/C=C/C(=O)c1ccc2c(c1)OCO2,,inactive: 5.98%
O=C(CSc1nc2ccccc2[nH]1)N1CCN(c2ccccc2)CC1,,inactive: 3.81%
Cc1cc2nc(-c3ccc(SCC(=O)Nc4ccc5c(c4)OCCO5)nc3)[nH]c2cc1C,"inconclusive: 17.8 µM [activator, single point]",
